Data as given in PMC9911399, “Two distinct binding modes provide the RNA-binding protein RbFox with extraordinary sequence specificity”.
Substitutions are numbered along the chain they refer to; changes in the protein carry UniProt numbers. Some of the results follow.

T1: RBFOX1 RRM (Homo sapiens, UniProt Q9NWB1 109-208)
T1 sequence: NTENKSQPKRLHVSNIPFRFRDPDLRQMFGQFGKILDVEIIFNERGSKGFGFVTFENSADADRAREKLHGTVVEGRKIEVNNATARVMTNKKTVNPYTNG

B1: GGGUAGC (DNA:RNA)
RNA: GGGAGACCGGAAUUCAGAUUGUCCGGGUAGCUUAAAUCCCGUCGUAGCCACCA
DNA 1: CAATCTGAATTCCGGTCTCCC
DNA 2: TGGTGGCTACGACGGGATT
B2: AUAAAGA (DNA:RNA)
RNA: B1 RNA with G25A, G26U, G27A, U28A, C31A
DNA 1: CAATCTGAATTCCGGTCTCCC
DNA 2: TGGTGGCTACGACGGGATT
B3: GAUCACU (DNA:RNA)
RNA: B1 RNA with G26A, G27U, U28C, G30C, C31U
DNA 1: CAATCTGAATTCCGGTCTCCC
DNA 2: TGGTGGCTACGACGGGATT
B4: GACAAGU (DNA:RNA)
RNA: B1 RNA with G26A, G27C, U28A, C31U
DNA 1: CAATCTGAATTCCGGTCTCCC
DNA 2: TGGTGGCTACGACGGGATT
B5: UGACCGU (DNA:RNA)
RNA: B1 RNA with G25U, G27A, U28C, A29C, C31U
DNA 1: CAATCTGAATTCCGGTCTCCC
DNA 2: TGGTGGCTACGACGGGATT
B6: AUAUAUA (DNA:RNA)
RNA: B1 RNA with G25A, G26U, G27A, G30U, C31A
DNA 1: CAATCTGAATTCCGGTCTCCC
DNA 2: TGGTGGCTACGACGGGATT
B7: ACUUCUA (DNA:RNA)
RNA: B1 RNA with G25A, G26C, G27U, A29C, G30U, C31A
DNA 1: CAATCTGAATTCCGGTCTCCC
DNA 2: TGGTGGCTACGACGGGATT
B8: UAACAUG (DNA:RNA)
RNA: B1 RNA with G25U, G26A, G27A, U28C, G30U, C31G
DNA 1: CAATCTGAATTCCGGTCTCCC
DNA 2: TGGTGGCTACGACGGGATT
B9: UCAGUAU (DNA:RNA)
RNA: GGGAGACCGGAAUUCAGAUUGUCCUCAGUAUUUAAAUCCCGUCGUAGCCACCA
DNA 1: CAATCTGAATTCCGGTCTCCC
DNA 2: TGGTGGCTACGACGGGATT
B10: GGUCGCA (DNA:RNA)
RNA: B1 RNA with G27U, U28C, A29G, G30C, C31A
DNA 1: CAATCTGAATTCCGGTCTCCC
DNA 2: TGGTGGCTACGACGGGATT
B11: GGGUUAA (DNA:RNA)
RNA: B1 RNA with A29U, G30A, C31A
DNA 1: CAATCTGAATTCCGGTCTCCC
DNA 2: TGGTGGCTACGACGGGATT
B12: GCCGUGC (DNA:RNA)
RNA: B1 RNA with G26C, G27C, U28G, A29U
DNA 1: CAATCTGAATTCCGGTCTCCC
DNA 2: TGGTGGCTACGACGGGATT
B13: CUGACCG (DNA:RNA)
RNA: B1 RNA with G25C, G26U, U28A, A29C, G30C, C31G
DNA 1: CAATCTGAATTCCGGTCTCCC
DNA 2: TGGTGGCTACGACGGGATT
B14: GUACAAU (DNA:RNA)
RNA: B9 RNA with U25G, C26U, G28C, U29A
DNA 1: CAATCTGAATTCCGGTCTCCC
DNA 2: TGGTGGCTACGACGGGATT
B15: UUAUCAG (DNA:RNA)
RNA: B9 RNA with C26U, G28U, U29C, U31G
DNA 1: CAATCTGAATTCCGGTCTCCC
DNA 2: TGGTGGCTACGACGGGATT
B16: AGCAGUU (DNA:RNA)
RNA: B1 RNA with G25A, G27C, U28A, A29G, G30U, C31U
DNA 1: CAATCTGAATTCCGGTCTCCC
DNA 2: TGGTGGCTACGACGGGATT
B17: UCCAACA (DNA:RNA)
RNA: B9 RNA with A27C, G28A, U29A, A30C, U31A
DNA 1: CAATCTGAATTCCGGTCTCCC
DNA 2: TGGTGGCTACGACGGGATT
B18: UUGGGGA (DNA:RNA)
RNA: B1 RNA with G25U, G26U, U28G, A29G, C31A
DNA 1: CAATCTGAATTCCGGTCTCCC
DNA 2: TGGTGGCTACGACGGGATT
B19: CCAUUAA (DNA:RNA)
RNA: B9 RNA with U25C, G28U, U31A
DNA 1: CAATCTGAATTCCGGTCTCCC
DNA 2: TGGTGGCTACGACGGGATT
B20: AGUCAUG (DNA:RNA)
RNA: B1 RNA with G25A, G27U, U28C, G30U, C31G
DNA 1: CAATCTGAATTCCGGTCTCCC
DNA 2: TGGTGGCTACGACGGGATT
B21: AACCACA (DNA:RNA)
RNA: B1 RNA with G25A, G26A, G27C, U28C, G30C, C31A
DNA 1: CAATCTGAATTCCGGTCTCCC
DNA 2: TGGTGGCTACGACGGGATT
B22: GUCUAGU (DNA:RNA)
RNA: B1 RNA with G26U, G27C, C31U
DNA 1: CAATCTGAATTCCGGTCTCCC
DNA 2: TGGTGGCTACGACGGGATT
B23: UGUUCGG (DNA:RNA)
RNA: B1 RNA with G25U, G27U, A29C, C31G
DNA 1: CAATCTGAATTCCGGTCTCCC
DNA 2: TGGTGGCTACGACGGGATT
B24: CUUGAUU (DNA:RNA)
RNA: B9 RNA with U25C, C26U, A27U, U29A, A30U
DNA 1: CAATCTGAATTCCGGTCTCCC
DNA 2: TGGTGGCTACGACGGGATT
B25: UUGGGGU (DNA:RNA)
RNA: B9 RNA with C26U, A27G, U29G, A30G
DNA 1: CAATCTGAATTCCGGTCTCCC
DNA 2: TGGTGGCTACGACGGGATT
B26: UGGCUUC (DNA:RNA)
RNA: B1 RNA with G25U, U28C, A29U, G30U
DNA 1: CAATCTGAATTCCGGTCTCCC
DNA 2: TGGTGGCTACGACGGGATT
B27: GUGUAUC (DNA:RNA)
RNA: B1 RNA with G26U, G30U
DNA 1: CAATCTGAATTCCGGTCTCCC
DNA 2: TGGTGGCTACGACGGGATT
B28: UGGCUAA (DNA:RNA)
RNA: B9 RNA with C26G, A27G, G28C, U31A
DNA 1: CAATCTGAATTCCGGTCTCCC
DNA 2: TGGTGGCTACGACGGGATT
B29: UAACAAA (DNA:RNA)
RNA: B9 RNA with C26A, G28C, U29A, U31A
DNA 1: CAATCTGAATTCCGGTCTCCC
DNA 2: TGGTGGCTACGACGGGATT
B30: CGUUUGG (DNA:RNA)
RNA: B1 RNA with G25C, G27U, A29U, C31G
DNA 1: CAATCTGAATTCCGGTCTCCC
DNA 2: TGGTGGCTACGACGGGATT
B31: CUGUAGG (DNA:RNA)
RNA: B1 RNA with G25C, G26U, C31G
DNA 1: CAATCTGAATTCCGGTCTCCC
DNA 2: TGGTGGCTACGACGGGATT

The binders below were run against T1, RBFOX1 RRM (assay: EMSA; HiTS-Eq, 1 nM pool, 10 min; buffer printed only for the single-RNA assays: 10 mM Tris pH 7.5, 150 mM NaCl, 3.4 mM EDTA, 0.001% NP-40, 30 C). Details: tags: His6 N-terminal (pET28a); label: 5' 32P.
In short: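 A pool of RNA with 7 randomized nucleotides, 5′-radiolabelled and with DNA-annealed flanks, was equilibrated at 1 nM for 10 min in 50 µL with purified RbFox RRM, wild type or mutant, across increasing protein concentrations. Free RNA was separated by 8% native PAGE, excised, reverse-transcribed, barcoded by PCR and sequenced. Relative association constants were obtained from read-count changes of each RNA species versus the control reaction and normalised to the cognate motif.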

Binder | binding signal
B1 | 0.0138 KA relative to UGCAUGU
B2 | 0.00273 KA relative to UGCAUGU
B3 | 0.0055 KA relative to UGCAUGU
B4 | 0.0114 KA relative to UGCAUGU
B5 | 0.0185 KA relative to UGCAUGU
B6 | 0.00148 KA relative to UGCAUGU
B7 | 0.00304 KA relative to UGCAUGU
B8 | 0.0098 KA relative to UGCAUGU
B9 | 0.00817 KA relative to UGCAUGU
B10 | 0.0125 KA relative to UGCAUGU
B11 | 0.0149 KA relative to UGCAUGU
B12 | 0.02 KA relative to UGCAUGU
B13 | 0.0123 KA relative to UGCAUGU
B14 | 0.0045 KA relative to UGCAUGU
B15 | 0.0137 KA relative to UGCAUGU
B16 | 0.00834 KA relative to UGCAUGU

Binder | binding signal
B17 | 0.00152 KA relative to UGCAUGU
B18 | 0.00758 KA relative to UGCAUGU
B19 | 0.00229 KA relative to UGCAUGU
B20 | 0.0134 KA relative to UGCAUGU
B21 | 0.00121 KA relative to UGCAUGU
B22 | 0.0158 KA relative to UGCAUGU
B23 | 0.024 KA relative to UGCAUGU
B24 | 0.0132 KA relative to UGCAUGU
B25 | 0.0132 KA relative to UGCAUGU
B26 | 0.0201 KA relative to UGCAUGU
B27 | 0.0101 KA relative to UGCAUGU
B28 | 0.0139 KA relative to UGCAUGU
B29 | 0.001 KA relative to UGCAUGU
B30 | 0.0143 KA relative to UGCAUGU
B31 | 0.00936 KA relative to UGCAUGU
